Measured values as given in the supplement of paper PMC10126150.
Sequences with one replicate were seen in a single cluster, so their values are uncertain.

System: ATP
Assay: switch fluorescence ratio, 500 uM ATP over buffer (Cy3 cluster intensity, sum of 5 cycles each) (fold (ratio)); higher = stronger signal-on switching upon ATP binding; sequences stand for … in TCGTCGGCAGCGTCAGATGTGTATAAGAGACAGTTTTTTTTTTTTTTTTTTTTTTTTT…TC
Settings: aptamer strand: ATP DNA aptamer (quencher-CACCTGGGGGAGTATTGCGGAGGAAGG + anchor), 100 nM annealed; ATP concentration: 500 uM; one replicate
Outline: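 Clusters with intensities outside 100-1000 RFU were excluded. The remaining Cy3-labelled switching-strand clusters on a modified Illumina MiSeq flow-cell had been annealed to 100 nM quencher-labelled ATP aptamer and imaged in selection buffer, then after 15 min with 500 uM ATP at 22 °C, for five cycles separated by NaOH stripping and re-annealing. The fluorescence ratio, averaged per switch-domain sequence, is each cluster's summed target-cycle Cy3 intensity over its summed buffer-cycle Cy3 intensity.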
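Further: ATP exposure 15 min at 22 °C before imaging.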

Row | Sequence | switch fluorescence ratio
1 | ACATTGCTGT | 0.991
2 | GGCGTTGGAA | 0.975
3 | CAGGTTCAGT | 0.991
4 | TAAACTCGGT | 0.981
5 | AACTTAGAGC | 0.99
6 | CGAAGTTTGA | 0.967
7 | GAGGGGGTAA | 1.04
8 | ACCTCCACTT | 1.28
9 | CTGTTAGGA | 1.02
10 | TGGAATGGTC | 0.929
11 | GATTAATGTG | 0.998
12 | TTAACATGAC | 1.22
13 | TCCTGAGCTC | 1.48
14 | GGACTAAGGG | 0.931
15 | ATTAGAGGAG | 1.03
16 | GGCGTTGTGA | 1
17 | TTCGAAGCCA | 1.61
18 | CTGTGTCCGT | 0.978
19 | TAAACTGATG | 0.993
20 | GATATGAGGT | 0.935
21 | GGGGGTGCCG | 1.07
22 | CATGTTGGTG | 0.978
23 | GAGACGCCTA | 1.06

Row | Sequence | switch fluorescence ratio
24 | GGCCGTGCC | 0.98
25 | AGCATAGTAA | 1.05
26 | AGCTGCAGGA | 1.03
27 | CTGATCGCGT | 1.16
28 | GACAGGCATA | 1.11
29 | TAACTGCGAT | 1.06
30 | CTCTGTGAGA | 1.03
31 | GACGTCTGTC | 1.04
32 | TGACTTCCGC | 1.7
33 | GGATAATGAT | 0.986
34 | TATCATTCCA | 1.03
35 | GCGGCACGAG | 1.02
36 | TTCTGGATTT | 0.985
37 | TCCTGGTGGG | 1.02
38 | GCAGGTCCGA | 1.02
39 | AAACGTTGCC | 1.04
40 | GGGTAGAGCG | 1.01
41 | ATGCCGAGCG | 1.02
42 | GCGGCTGACA | 1.03
43 | TTTATTCTAG | 0.974
44 | AGCGAAGCTT | 0.952
45 | GTCGGTATGG | 1.09
46 | TGAAGAAATC | 1.11

Row | Sequence | switch fluorescence ratio
47 | AGGTGAGTCC | 0.973
48 | TGCGCAGATG | 0.958
49 | CGGCTTTGGC | 0.941
50 | AGGGAGTCC | 0.921
51 | CGACCAGACG | 1.06
52 | AGTTGACCTG | 0.937
53 | GACGGCCAAA | 1.06
54 | AATGTCTACT | 1.02
55 | TGTTGATTCG | 1
56 | GCCAATTTAG | 1.02
57 | TTAACGACTA | 1.01
58 | AAGATTGGT | 0.925
59 | CTGTGGGATG | 1
60 | TGAGCTACGA | 1.02
61 | TCGCTCGAAT | 1.01
62 | ATCGTACCTC | 1.09
63 | AATCAAACCA | 1.04
64 | GGGAGTGCGC | 0.948
65 | AAACTTGTCG | 1.02
66 | TGAGGAGCAT | 1.02
67 | TGTTTATAGG | 0.983
68 | AAGAACGGAA | 1.05
69 | AACAACGTTC | 0.998

Row | Sequence | switch fluorescence ratio
70 | CGCGGACCCT | 1.11
71 | CCTACATCTT | 1.02
72 | GCATTCGTCG | 1.01
73 | CAACTACTG | 1.07
74 | TACTGTTACA | 1.25
75 | CCGCGTGCGG | 1.01
76 | TCCAGAAAGT | 0.996
77 | GGAAGCCTGT | 1.03
78 | TTGTGATGAC | 0.995
79 | CGTTCCCGTT | 1
80 | ACTATATGGG | 1.08
81 | GAGGACCCAA | 1.03
82 | ACCCGTGGGA | 1.03
83 | TGACTGATC | 1.05
84 | CGAAAATGCA | 0.961
85 | AGTAGGTTGA | 1.01
86 | TAATTGTTGA | 1.01
87 | GTCCCAGATT | 1.03
88 | TCTGTATTCT | 0.982
89 | TGCTTGCTAA | 1.01
90 | TCGCAGGAGG | 0.963
91 | CCTCAAGTGG | 1.14
92 | GCGCTCGCTA | 1.1

Row | Sequence | switch fluorescence ratio
93 | CTGGTCGCGC | 1.05
94 | GTTATACAT | 1.03
95 | AGAATTTCA | 0.989
96 | GAGCACGATC | 1.11
97 | CGTTAATATA | 0.964
98 | TAACAACCTA | 1.06
99 | TAGGCCCGGT | 1.01
100 | TGTCGCAAAG | 1.12
101 | TCAGCTGTCC | 1
102 | TACGGAAGCC | 0.978
103 | CCGGATCCGG | 0.965
104 | CCTGCATCTT | 1.06
105 | GATGACACTT | 1.05
106 | GAGGTGGGAA | 1.05
107 | CATTTATTTA | 1.03
108 | CTCGGCACAA | 3.07
109 | CTTCAGGGGG | 1.02
110 | AGACGGGGAA | 0.981
111 | GCGGGGATAA | 1.01
112 | TAATCTACCG | 1.09
113 | ATATGTGGAC | 1
114 | TGGCCAGTAA | 1
115 | CTCGTTCCTA | 0.989

Row | Sequence | switch fluorescence ratio
116 | AGTTCGCGT | 0.959
117 | GGATGCCTTG | 0.978
118 | AGGTATTTAT | 1.01
119 | CAGCGTAGGA | 0.999
120 | TAGCTACTAA | 1.02
121 | AATTGGCCGC | 1.03
122 | AATGCTTAAG | 1
123 | GCGGGCCCGG | 1
124 | ATAAAGATGT | 1.02
125 | AAATTTTTTA | 1.04
126 | GATTCACAAT | 1.02
127 | ATGTCCAAT | 0.995
128 | TCGAATTAGG | 0.994
129 | AGTGTGTCAA | 1.04
130 | TGGTAGGCC | 1.02
131 | TAAGACAATA | 1.04
132 | GCCAGTTGCC | 1.03
133 | GGACGTAATC | 4.31
134 | GGAGCTCTGT | 0.967
135 | GCGTAGGGGA | 0.992
136 | AGTTCATACT | 1.04
137 | TACTGGCGAA | 0.983
138 | AGAACTTGAT | 1

Row | Sequence | switch fluorescence ratio
139 | CGCGACTGCC | 1.21
140 | ATAGGTGTTC | 0.964
141 | TCCCGATCAG | 0.998
142 | GTTTCCGCTC | 1.93
143 | AATTTGTCTT | 1.01
144 | TAGAAGGGG | 1.19
145 | TAGGCGACAA | 0.998
146 | CGCGTCTCAA | 1.04
147 | ACTAAGCCAG | 1.05
148 | GAAGGCTTGT | 1.02
149 | AAAGTGGTGC | 0.988
150 | GGCAGCTATG | 0.969
151 | AAGAACGGGT | 0.977
152 | TTTCAAGTAA | 1.29
153 | CTCCGGATGT | 4.08
154 | ATAGTTACGA | 0.993
155 | TTTATATCG | 0.959
156 | GAATCCGGTA | 1.04
157 | TCCTGGGGCG | 0.99
